According to the supplement of paper PMC3334620:
The full ranking holds about 33,000 sequences; the median of “E-score (-0.5 to 0.5)” is about -0.035, and the highest 2% start at about 0.34. The list shows a part of the results.

molecular target: T1, Mot3 (UniProt P54785); assay: PBM E-score (8-mer binding enrichment) (E-score (-0.5 to 0.5)); higher = stronger / more preferred TF binding; most listed sequences are background and not binding sites; conditions: protein concentration: 200 nM; construct: GST-full length
T1 sequence: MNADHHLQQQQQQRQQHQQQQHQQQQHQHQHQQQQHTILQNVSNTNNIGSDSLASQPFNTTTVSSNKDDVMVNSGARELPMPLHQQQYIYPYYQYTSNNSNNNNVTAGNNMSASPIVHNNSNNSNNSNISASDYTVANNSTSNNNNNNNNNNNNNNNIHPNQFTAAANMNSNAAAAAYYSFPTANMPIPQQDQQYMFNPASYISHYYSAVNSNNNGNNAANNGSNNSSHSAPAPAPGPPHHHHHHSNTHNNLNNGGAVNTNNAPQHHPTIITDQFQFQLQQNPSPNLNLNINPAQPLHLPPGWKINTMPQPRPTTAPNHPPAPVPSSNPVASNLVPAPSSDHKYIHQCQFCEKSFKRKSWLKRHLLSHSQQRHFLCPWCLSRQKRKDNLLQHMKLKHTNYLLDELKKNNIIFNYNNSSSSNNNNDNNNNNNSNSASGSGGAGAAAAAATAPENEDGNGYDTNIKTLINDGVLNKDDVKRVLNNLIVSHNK
In short: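 Universal all-10-mer Agilent arrays, double-stranded by primer extension on fresh or once-stripped slides, were probed with about 100-200 nM GST-tagged yeast transcription factors made by PURExpress. Fluorescent anti-GST detected bound protein, and masliner normalised the scans. E-scores from the Universal PBM Analysis Suite were given to each ungapped eight-base word pooled with its reverse complement.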

Sequence	PBM E-score
CACATGAG	0.0156
AAATATAA	0.199
CCACGAGG	-0.226
CTGTCCAC	0.0862
ACTACAGC	0.0561
AGGACGGA	-0.374
GCATAATA	0.162
AAGCAGGG	-0.24
AAACCGAG	-0.269
ATGACACG	0.384
AGCGTCGC	-0.0658
CCGGGCGA	-0.0692
CACTAAAC	0.154
AAACGGCG	-0.159
AGTGTAAT	0.308
ACAATTTG	0.0354
AAACTGTA	0.0863
GGTGGGGA	-0.00724
GGCTCAAC	0.113
AGCGGGTA	0.0718
TGTGCAAA	0.179
CATATCTA	0.0779
CCGAAATC	-0.193
CCCTTACG	0.0156
CGTCTTAC	4e-05

Sequence	PBM E-score
AGTACAAT	0.136
AGACTTGA	0.0807
GCATGCGC	0.0867
CGTCTCCC	-0.142
AACACGCA	0.326
TGTTGGAA	0.271
CATGCCCC	-0.0877
ATCGCAGG	0.141
AGCAGATC	0.0097
ATATTTGC	0.222
GAGCGTGC	-0.0522
GGGCAGAA	-0.0232
AGACGCAA	0.0655
GCAGAGGC	-0.26
AAATAACG	0.19
ATCGCCTG	-0.148
CGGGCGAG	-0.138
CTCGTAGC	-0.168
ATCTGTTC	0.0556
GGATTCTA	0.0172
CACTTTAG	-0.0286
ATTGAGAC	-0.134
GGATGTAA	0.295
CGTCCACA	-0.116
CTCTCATC	-0.198

Sequence	PBM E-score
CCCGGATA	-0.224
CCGCCGCA	-0.0458
CGGATCAA	0.0823
TAGTCTGA	-0.122
AGCGGAGC	-0.232
GGGCGTTA	0.212
GTCCGACA	0.0717
CGGACACC	-0.186
GTCCCATA	-0.173
CAGGAGGG	-0.159
GGCAAATA	0.314
CATCGGGA	-0.224
ATGATTTA	0.124
ACACCGAC	0.0305
ATCGACGG	-0.121
GACCCTCC	-0.239
TCAACGCA	0.235
GGAACACC	0.0643
AGAACTAA	0.0172
GCAACCAA	-0.013
CTTCCCAC	-0.0498
CCATTCGA	-0.016
CGTAGAGC	0.112
GACGGTGA	-0.24
ACGGGTTC	-0.0953

Sequence	PBM E-score
ACCCTAAT	0.00619
AAGATGTA	0.194
CATAATTA	0.229
CTCCGAGC	-0.0251
TAAGACAA	0.106
GGCTCTAC	-0.144
CAGCGAAC	-0.179
GGAGGCAA	0.437
AGGTCGAG	-0.141
GTGTCCCA	-0.183
ATCAGGGG	-0.35
AGAAGGGC	-0.0481
GGCACATA	0.281
GCGCAATA	-0.134
GGGCTGAA	0.0021
ATCGATTC	-0.187
CGTTGCCA	-0.0814
CGTGGACC	-0.307
AGTTTTTC	0.186
AACGCAGA	-0.00078
ATCGGCTG	-0.355
CACACACG	0.159
AGAGATAA	-0.0375
AATTTCAA	0.0311
ACAAACCT	-0.0491

Sequence	PBM E-score
CTCGTAAC	-0.0177
GTAAGAAC	0.234
ATATAAGG	0.0652
TATCACGA	-0.05
CCATCAGG	-0.179
ACGTCGCA	-0.15
ACTGGGCA	-0.0747
GTAATATA	0.275
CGGGCACG	0.263
AACCTTCT	-0.121
CCGCTAGG	-0.0259
CACCACAA	-0.0277
GTATGCTA	-0.0526
CCGGGAAC	-0.191
ATTCTTAA	0.0836
CAGCACTC	-0.12
ATCGGGTC	-0.22
CGTCTTTA	0.00398
ACCCCTTC	0.129
CATCGCCG	0.0056
CCACCGGC	-0.353
GATTTTGC	0.0889
GCGACACC	-0.167
CCCTTGCC	0.0298
GGCGAGGA	-0.241

Sequence	PBM E-score
AGGATAGG	-0.127
GAGTTATA	0.0732
TCGTCAGA	-0.174
GCCATACC	-0.221
CGGACTAG	-0.368
CCCTTTTA	0.0328
ACCTCCAC	-0.2
GAGGACAC	0.109
ACTGATCT	-0.0322
GCGAGAGA	-0.265
CGTTAGAG	-0.246
ATGTGGTA	0.115
GCTATCCA	-0.141
ACATGCGA	0.18
GCGGCAAC	-0.0624
CCAAGCGC	-0.14
AAAGAAGC	0.146
CCTCCTTC	-0.166
AGTTTACA	0.363
AAATCCAT	0.0755
AGCTACAG	-0.0877
ATGTGAAT	0.211
ACAGCGCA	-0.0713
ATCCGGCG	-0.221
ATACGGAT	0.0904

Sequence	PBM E-score
GAGCTTGC	-0.112
ACAATTGG	-0.256
AACATTTC	0.0869
AAGTAGCC	-0.21
GACGTGGA	-0.152
AGAGAGAC	-0.139
GCGAATTA	0.0208
CTTGCGTC	-0.102
TAAAAGGA	0.189
GGTAATCA	0.187
CCGACTCC	-0.101
CCGACCGA	-0.236
CTACCCCC	-0.27
GAGCCGCA	-0.0359
GAATCTGC	-0.0117
TCGCGGAA	-0.278
AGGTACCG	0.407
CGAATTGC	0.0526
GGACTATA	-0.12
GGACTGCC	-0.0723
ATTAGCAC	0.0726
ATGATACG	0.107
CTCTGGCC	-0.304
GTGACCAA	-0.0735
GAAGTCCC	-0.279

Sequence	PBM E-score
GACGGGAA	-0.0963
GAACCCAC	-0.105
TGTACCAA	0.146
ACCGGCCG	-0.21
AGATTTCG	-0.071
CATTTCTA	-0.092
AGAGTTGA	-0.0955
AGGATACC	-0.085
AGGCACTA	0.484
ATACGTCC	-0.0906
AGCTAGCG	-0.068
AATCAATT	0.122
AGGTGGAA	0.00021
CCTATAAG	0.122
ACAAGTCG	-0.0254
ACAGATCC	-0.0839
AAACACGT	0.318
AGTTTAGA	0.0302
CTTTATCC	0.0587
GTAACGTA	0.21
ATTGGCTA	-0.129
AATTCTAG	0.055
CTCGGCAA	-0.173
CAAGCAAC	0.00864
ACCGAAGA	-0.0606

Sequence	PBM E-score
AACTATCT	-0.0187
GTAATCAA	0.241
CTATTCGC	-0.164
GAGGTACA	0.192
AAGGGGTC	0.101
GCAGACGC	-0.172
CTCGTCGA	-0.0922
GCCTCCCC	-0.0818
AACTGAAT	0.0977
CTGAGCAC	-0.0963
AGTCCTGC	-0.0576
CCCCCTGC	-0.182
CTCGTGCC	0.195
AGGCAATG	0.476
CCCTGGCG	-0.0318
CGGCAAGC	-0.0333
ATTCATAA	0.0131
CCGCACAG	-0.183
ACAAGCCA	0.124
CAGTATCG	-0.174
ATAAACTC	0.00083
ACCTATTA	0.283
CCATGACA	0.0345
CTGCTGGA	-0.139
AGGGTGAG	-0.113

Sequence	PBM E-score
CAACTTGG	0.0338
CGACATTC	0.0467
AGAGTACT	-0.0155
ATATCCTC	-0.218
AGGGTGAC	-0.182
GACCTTAA	-0.272
CTATATCC	-0.039
CTAATGAC	0.027
CCAGAAAA	0.108
CCGTGGTA	-0.142
AACGGCCC	-0.332
CATCATAA	0.107
CAACAACG	0.0989
CCTTTAGA	0.26
CCGATAGA	-0.119
ACGGTATC	-0.0157
ATCGTGAA	-0.0691
CAGTAAAA	0.0622
ATGCGTCG	0.056
TAAGAATA	0.107
AATGATAT	0.0265
GTGCCTAA	0.49
GACGGCTA	-0.197
AGGGACAT	-0.0168
ACAGAGTG	0.0666

Sequence	PBM E-score
AGAATAAA	0.0906
CGCAATGA	0.0425
ATCAGTAA	0.215
GGTCGACC	-0.0894
CTTCTTCA	0.0251
GCAATAGC	0.119
GCAAAATA	0.185
CATGCCCG	-0.00514
CCGTACGG	-0.139
AAAGTATA	0.075
ACAGTGGG	-0.0834
ATAACGAA	0.0582
CTTGTTCA	0.264
CAAGCACA	0.0791
AATAATTG	-0.00621
CAAGGTTA	0.0762
ACCTCCGC	-0.139
CAGACCAA	-0.0946
AGCGACCG	-0.266
CAACAGGG	0.00293
AACGGCGG	-0.117
GAGATCAC	-0.0174
AGAAGTAC	-0.0556
AAAGTAAT	0.178
TGCGCAAA	-0.00825

Sequence	PBM E-score
AACACACA	0.34
GAATTAGC	-0.00518
TCACAGCA	0.0261
TGCCAGCA	-0.0159
GTCGTGAA	-0.033
GCGGTACC	-0.273
AGCGCAAT	-0.0163
AAATTACT	0.138
CTGAATTA	0.108
CTGCTAGC	-0.147
GAAAGTGA	-0.0214
AACCAGAA	0.0813
AGATCTTG	0.027
AACTCTGA	0.00225
ACTAGGAC	-0.199
CCGACCAC	-0.189
GGTTTAAA	0.109
ACGTCGAA	0.13
AAGTCCGT	-0.0474
CAGAAAGC	0.0671
ATGGTCGG	-0.114
AGTACCGC	-0.116
ATTGTCTG	0.0921
GTGCACAA	-0.097
CTGCACTA	-0.0964

Sequence	PBM E-score
AGGCATAA	0.262
CAATATAG	0.13
ACAAAAAG	0.111
CCCCTACC	-0.103
AGCCACAG	-0.229
CGATGCTC	-0.242
TAAACGGA	-0.0263
TCACTGCA	0.00217
ATGCTGAC	0.0559
ACAAGCAT	0.228
GAAGTAGA	-0.043
ACTTTGTA	0.194
CGGCCTAC	-0.202
ATCTACAC	0.375
CCCGATAG	-0.162
CTTACTGA	-0.00516
CGTTATGC	0.0748
CAATTCCA	-0.0471
CGGCTCGC	-0.198
CATTGAAG	0.0812
TTAGCGAA	0.111
GATATGTA	0.283
CCCTACTA	-0.071
CAGCAAAC	-0.0883
CGATACGA	-0.129

Sequence	PBM E-score
ATCATTTG	0.00107
GGGTAATA	0.17
AATAAGAT	-0.0605
TGGGTACA	0.0297
TAGCGTGA	-0.117
ACTTTTAT	-0.00942
GTTGCCGA	0.0551
AAGCGTCG	-0.0805
CCCTCCAG	-0.207
AACCTCGC	-0.118
GACCGAGA	-0.223
ATCGTCCC	-0.215
AGCCTACT	0.113
CCTACGCA	0.223
GCCATCAA	0.161
CGTCTTCC	-0.21
TAACTTGA	0.0969
CTCCATTA	-0.027
ACCACAAA	0.0203
